In all, about 45,000 compounds went through this assay and about 65 (0.1%) were called active. The call rests on the fitted dose curve; in most records, active means well fitted activation curve with a large enough effect; inconclusive means small, poorly fitted or top-dose-only effect; inactive means no such curve, though single readings can be large or run the other way. The list shows a part of the results.
biological target: Galactocerebrosidase (Homo sapiens) (UniProt P54803); experiment: A Novel Cell-Based Assay to Identify Small Molecules for B -Galactocerebrosidase; settings: 145M-Twi-hGALC-G270D cells (Twitcher mouse brain line with human GALC G270D), HMU-beta-Gal fluorescence, 48 h; series mostly up to 57.5 µM; activation: at the top concentration; further: 0% is about no effect; nearly all actives have a fitted effect of over 65% in size
Sequence of UniProt P54803 (P54803 whole entry, looked up): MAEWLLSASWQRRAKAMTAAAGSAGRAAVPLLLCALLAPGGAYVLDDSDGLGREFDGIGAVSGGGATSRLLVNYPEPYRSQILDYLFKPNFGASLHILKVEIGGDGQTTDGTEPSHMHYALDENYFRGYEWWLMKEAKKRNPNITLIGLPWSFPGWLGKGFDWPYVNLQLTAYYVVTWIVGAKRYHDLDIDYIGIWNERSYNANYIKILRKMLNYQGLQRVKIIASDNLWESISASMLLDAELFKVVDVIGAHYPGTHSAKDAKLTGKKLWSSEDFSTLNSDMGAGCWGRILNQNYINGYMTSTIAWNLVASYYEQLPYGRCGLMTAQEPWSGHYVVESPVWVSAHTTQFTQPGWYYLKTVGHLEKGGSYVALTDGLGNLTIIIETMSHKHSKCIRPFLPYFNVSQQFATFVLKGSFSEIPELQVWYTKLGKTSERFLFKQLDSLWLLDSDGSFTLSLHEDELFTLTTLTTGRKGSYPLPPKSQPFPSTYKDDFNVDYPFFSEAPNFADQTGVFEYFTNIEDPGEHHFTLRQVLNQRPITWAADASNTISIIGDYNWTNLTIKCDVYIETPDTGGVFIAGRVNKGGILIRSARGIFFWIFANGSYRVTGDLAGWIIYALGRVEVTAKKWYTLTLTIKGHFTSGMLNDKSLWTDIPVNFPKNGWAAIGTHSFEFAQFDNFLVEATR
Method in brief: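 Live 145M-Twi cells (Twitcher mouse brain-derived, GALC-null) stably expressing human GALC-G270D, with a wild-type GALC line, were compound-treated. Residual GALC activity was then read as fluorescence from 0.1 mM final HMU-β-gal at pH 5.2; higher signal means activation.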

activation, inactive:
CCc1ccccc1Nc1nn2c(=O)c3ccc(C(=O)NC4CCC(C)CC4)cc3nc2s1 (stereo not drawn) -25.7%
CCOc1cc(C(=O)N(Cc2nc(-c3ccc(C)cc3)no2)C(C)C)cc(OCC)c1OCC -34%
COc1ccc(-n2ncc(C(=O)N3CCN(Cc4ccccc4)CC3)c2C2CCN(C(=O)OC(C)(C)C)CC2)cc1 7.1%
CCc1cnc2c(c1SCc1c(F)cccc1Cl)c(=O)n(C)c(=O)n2C -11.4%
CN(C(=O)CSc1nc2ccccc2n1CC(=O)N(C)C1CCCCC1)c1ccccc1 -19%
Cc1ccc2c(CNC3CCCC3)c(C(=O)O)n(Cc3ccc(F)cc3)c2c1 -20.6%
CCCCNC(=O)CCn1c(=O)c2ccccc2n(Cc2cccc(Cl)c2)c1=O -1.36%
COc1cccc(NC(=O)Nc2ccc3nc(N4CCN(C)CC4)cc(C)c3c2)c1 -8.12%
Cc1noc(/C=C/c2ccccc2F)c1S(=O)(=O)N1CCC(C(=O)Nc2ccc(C#N)cc2)CC1 1.34%
CCOC(=O)C1CCCN(C(=O)c2ccc3c(c2)N(Cc2ccc(Cl)cc2)C(=O)c2ccccc2S3=O)C1 (stereo not drawn) -13.5%
Cc1ccc(C)c(NC(=O)c2cc(S(=O)(=O)NCCc3ccccc3)ccc2F)c1 -13.8%
COc1ccc(NC(=O)C2CCN(S(=O)(=O)c3cc(-c4noc(C)n4)ccc3C)CC2)cc1 -11.7%
Cc1cccc(NC(=O)CN2C(=O)CCn3nc(-c4cccn4C)cc32)c1C -9.39%
O=C(Nc1cccc(C(F)(F)F)c1)Nc1cccs1 -9.56%
O=C(CSc1nnc2scc(-c3ccccc3)n12)Nc1ccc(Cl)cc1 -8.62%
CCOC(=O)c1ccc(NC(=O)c2ccc(CN3C(=O)CCn4nc(C)cc43)cc2)cc1 -7.35%
CCOc1ccc(CNC(=O)CCn2c(=O)c3cccn3c3ccc(F)cc32)cc1 -1%
CCCCN(CC)C(=O)C1CCCN(c2ncnc3c2nc2n3CCCCC2)C1 (stereo not drawn) -17.1%
O=C(CSc1nc2ccsc2c(=O)n1-c1ccc(Br)cc1)NCc1ccccc1 -22.7%
Cc1ccccc1Cn1cnc2nc3c(cc2c1=O)CC(C)CC3 (stereo not drawn) -10.1%
Cc1cc(N2CCCCC2)nc2ccc(NC(=O)/C=C/c3ccc(OCCC(C)C)cc3)cc12 -27.3%
CCc1cccc(C)c1NC(=O)CCCn1nc(C)c2sc3ccccc3c2c1=O -9.47%
O=C(Cn1c(=O)c2ccccc2n2nncc12)Nc1cccc(F)c1 -15.6%
O=C(NCc1nc2ccccc2[nH]1)c1cccc(Cl)c1 0.0069%
COc1ccc(NC(=O)NCCn2nnc3cc(S(=O)(=O)N(C)C)ccc32)cc1 -10.5%
CCOC(=O)c1c(C)[nH]c(C)c1S(=O)(=O)N(C)CC(=O)NCc1cccc(Br)c1 7.31%
CCc1cccc(C)c1NC(=O)CCCN1C(=O)C(c2ccccc2)Oc2cccnc21 (stereo not drawn) -18.5%
CC1CCN(c2ccc(-c3nc(-c4ccccc4)no3)cc2[N+](=O)[O-])CC1 -13.8%
O=C(NC1CCCCC1)c1ccc(CSc2nc3ccncc3n2Cc2ccccc2F)cc1 -15.3%
COc1ccc(NC(=O)CSc2nc(-c3cccs3)cc(C(F)(F)F)n2)c(OC)c1 -10.2%
Cc1ccc(NC(=O)Cn2cc3c(n2)CCCC3)c(C)c1 -13.9%
COCCCNC(=O)c1ccc2c(c1)nc1n2CCCCC1 8.56%
CCOc1ccc2nc(N3CCC(C(=O)Nc4cc(C)ccc4C)CC3)sc2c1 -12.5%
Cc1ccc(Cl)cc1NC(=O)CCn1c(=O)c2cccn2c2cccnc21 -6.51%
Cc1noc(Cn2c(=O)c3cc4c(cc3n(CC(=O)Nc3ccccc3F)c2=O)OCO4)n1 -13.4%
O=C(CSCc1cnn(-c2ccccc2)c1-n1cccc1)NCc1ccc(F)cc1 -16.7%
CCN(CC)CCCNC(=O)CSc1nc(-c2ccc(OC)cc2)cc(C(F)(F)F)n1 -19.6%
CCc1ccc(NC(=O)CSc2ccc(-c3cccs3)nn2)cc1 -3.56%
Oc1c(C(c2ccccc2Cl)N2CCN(Cc3ccccc3)CC2)sc2nc(-c3ccco3)nn12 (stereo not drawn) -1.67%
CCOc1ccc(NC(=O)c2ccc3snnc3c2)cc1 -13%
Cc1nc(N2CCCC2)c2c(C(=O)Nc3ccc(Br)cc3F)c(C)oc2n1 0.563%
CCOC(=O)C1CCC(CN(Cc2ccc(OC)cc2)S(=O)(=O)c2ccc(F)c(C(=O)Nc3cc(C)ccc3C)c2)CC1 (stereo not drawn) -10.3%
CCOC(=O)c1cnc2ccc(OCC)cc2c1N1CCN(c2ccccc2F)CC1 -18.2%
CC(=O)c1cc(-c2ccccc2)n(CC(=O)NCCc2ccc(C)cc2)c1C -9.39%
CC(C)Oc1ccc(CNC(=O)C2CCN(C(=O)N3CC(C)Oc4ccccc43)CC2)cc1 (stereo not drawn) -16.1%
CCOC(=O)c1ccc(CN(Cc2ccccc2)S(=O)(=O)c2ccc(Cl)cc2)cc1 -0.72%
Cc1cccc(-c2nc(CSc3nncn4c3cc3sccc34)c(C)o2)c1 -9.07%
FC(F)(F)c1cc(-c2cccc(Br)c2)nc2ncnn12 -1.19%
CCOC(=O)c1c(C)n(-c2ccccc2)c2ccc(OC(=O)c3cccc(Cl)c3)cc12 -9.34%
Cc1ccccc1C(=O)Nc1nc(-c2ccc(Br)cc2)ns1 -14.6%
COc1ccc(-c2csc3nc(-c4ccccc4)oc(=O)c23)cc1OC -3.26%
CC(C)NC(=O)C1CCC(Cn2c(=O)c3sccc3n(CC(=O)Nc3ccccc3)c2=O)CC1 (stereo not drawn) -15.8%
CCCCCNC(=O)c1cc2c(=O)n3ccccc3nc2n1C -3.13%
CN(C)C(=O)c1ccc(NC(=O)Cn2nc(-c3ccccc3)c3ccccc3c2=O)cc1 -15.4%
Clc1cccc(-n2ncc3c(NCCc4ccccc4)ncnc32)c1 -6.84%
CCCOc1ccc(C2C(=O)N(C3CCCCC3)CC(=O)N2CCc2ccccc2)cc1OC (stereo not drawn) 4.53%
CCOC(=O)c1cccc(NS(=O)(=O)c2cc(-c3cnc(C)o3)ccc2OC)c1 -3.53%
CC(=O)Nc1ccc(OCc2cc(=O)n3ccccc3n2)cc1 -11.7%
COc1cccc(CN2CCc3nc(Nc4ccc5c(c4)OCCO5)ncc3C2)c1OC -3.74%
COc1ccccc1N1CCN(C(CNC(=O)C(=O)NCCN(C)C)c2cccnc2)CC1 (stereo not drawn) -8.68%
Cc1cccc(NC(=O)c2c(NC(=O)c3cccs3)sc3c2CCC(C)C3)c1 (stereo not drawn) -18.4%
CCCCNC(=O)C(CC)Sc1nnc(-c2ccc(F)cc2)c(-c2ccc(F)cc2)n1 (stereo not drawn) -19.8%
Cc1ccc(-c2noc(-c3ccccc3NC(=O)C3CC(=O)N(c4cccc(C)c4)C3)n2)cc1 (stereo not drawn) -0.944%
Cc1cccc(NC(=O)CSc2nc(=O)n(Cc3ccncc3)c3c2CCC3)c1C 5.12%
CCOc1ccc(NC(=O)c2cc(=O)c3cc(CC)ccc3o2)cc1 -2.86%
CCc1ccc(C2=C(C)C(N3CCC(C(=O)Nc4cccc(OC)c4)CC3)=NS2(=O)=O)cc1 -20.2%
CCOc1ccc(NC(=O)CSc2nc(-c3cccs3)cc(C(F)(F)F)c2C#N)cc1 -11.5%
Oc1ccc(/C=C/c2nc(-c3ccccc3O)n(-c3ccccc3)n2)c(O)c1 -23.8%
COc1cc(NS(=O)(=O)c2ccc3c(c2)CC(=O)N3)cc(OC)c1OC -7.96%
CCc1ccccc1NC(=O)Cn1nnc(-c2nc(-c3ccncc3)no2)c1N -18.8%
Cc1ccc(NC(=O)C2CCN(S(=O)(=O)c3ccc4c(c3)CCCC(=O)N4)CC2)c(Cl)c1 -28.4%
COc1ccc(CCNC(=O)c2ccc3c(c2)sc2nc(-c4ccc(C)cc4)cn23)cc1OC 1.73%
CCOc1ccc(Nc2c(S(=O)(=O)c3ccc(C)cc3)cnc3cc(OC)c(OC)cc23)cc1 -7.96%
COc1ccccc1NC(=O)CSC1=Nc2ccccc2C2=NC(CC(=O)NCCc3ccccc3)C(=O)N12 (stereo not drawn) -3.91%
COc1cc(NS(=O)(=O)c2ccc3[nH]c(=O)[nH]c3c2)cc(OC)c1 -21.2%
CCOc1ccc(NC(=O)CN2CCN(CC(=O)Nc3ccc(N(CC)CC)cc3)CC2)cc1 -8.73%
CCCCC(=O)Nc1ccc2nc(SCC(=O)N3CCOCC3)sc2c1 -7.1%
Cc1ccc(NC(=O)c2c(C)oc3ncn(C)c(=O)c23)cc1F -13.8%
COc1cccc2c1Oc1ncccc1N(c1ccc(C(=O)NCc3ccccc3C)s1)C2 -8.25%
O=C(NCc1ccccc1Cl)c1ccc2c(c1)nnn2C1CCCC1 -11.1%
O=C(NC1(C(F)(F)F)C(=O)Nc2c1c(=O)[nH]c(=O)n2CCc1ccccc1)c1ccc(Cl)cc1 (stereo not drawn) -8.83%
Cc1ccc(Cl)cc1NC(=O)c1ccc(NC(=O)N2CCSc3ncccc32)cc1 -10.3%
COc1ccccc1C(=O)n1nc(-c2cccnc2)nc1NCc1ccccc1 -11.6%
Cc1ccc(OCC(=O)Nc2nnc(SCc3cc(=O)c4ccccc4[nH]3)s2)cc1C 6.77%
Cc1cccc(-c2nc3c4ccccc4nc(N4CCN(c5ccc(F)cc5)CC4)n3n2)c1 -1.14%
CC1=C(c2ccc(C(C)C)cc2)S(=O)(=O)N=C1N1CCN(c2ccc(F)cc2)CC1 -5.23%
O=C(CCCc1ccccc1)NC1CC(=O)N(c2ccc(Cl)cc2)C1 (stereo not drawn) -18.2%
CC1=Nc2cc(C(=O)NC3CCCCC3)ccc2Sc2ccc(Cl)cc21 -27.1%
COc1ccc(NC(=O)c2coc(=O)c3ccccc23)cc1OC -19%
O=C(Nc1ccc2oc(-c3ccccc3)nc2c1)c1ccc2ccccc2c1 5.63%
CC(=O)N1c2ccc(S(=O)(=O)N3CCCCCC3)cc2CC1C(=O)NCc1ccccc1 (stereo not drawn) -4.55%
COCCn1c(C)cc(O)c(C(c2ccccc2)N2CCN(CCO)CC2)c1=O (stereo not drawn) -1.92%
NNc1nnc(NN)c2ccccc12 -12.2%
COc1cc2c(cc1OC)C(COc1ccc3c(C)cc(=O)oc3c1)N(C(=O)c1cccc(OC)c1OC)CC2 (stereo not drawn) 17%
Cc1ccc2c(n1)sc1c(=O)n(-c3cccc(C(F)(F)F)c3)nnc12 2.72%
Clc1ccc(OCc2nc(-c3ccc(-n4cccc4)cc3)no2)cc1 -18.2%
Cc1ccc(Cl)cc1NC(=O)CCCn1c(=O)c2cccn2c2ccccc21 -6.43%
COc1ccc2c(c1)c1c(c(=O)n(Cc3ccccc3)c(=O)n1CC(=O)Nc1cc(C)cc(C)c1)n2C 2.72%
